Among all 310,000 compounds or so, about 2,200 (0.71%) showed an effect of 50% or more. Effects have a minus sign here. This is one part of the list.
Molecular target: human ether-à-go-go-related gene (hERG) potassium channel (human, UniProt Q12809)
Test: primary screen, population patch clamp on CHO cells stably expressing hERG

human ether-à-go-go-related gene (hERG) potassium channel, sequence (Q12809 whole entry, looked up): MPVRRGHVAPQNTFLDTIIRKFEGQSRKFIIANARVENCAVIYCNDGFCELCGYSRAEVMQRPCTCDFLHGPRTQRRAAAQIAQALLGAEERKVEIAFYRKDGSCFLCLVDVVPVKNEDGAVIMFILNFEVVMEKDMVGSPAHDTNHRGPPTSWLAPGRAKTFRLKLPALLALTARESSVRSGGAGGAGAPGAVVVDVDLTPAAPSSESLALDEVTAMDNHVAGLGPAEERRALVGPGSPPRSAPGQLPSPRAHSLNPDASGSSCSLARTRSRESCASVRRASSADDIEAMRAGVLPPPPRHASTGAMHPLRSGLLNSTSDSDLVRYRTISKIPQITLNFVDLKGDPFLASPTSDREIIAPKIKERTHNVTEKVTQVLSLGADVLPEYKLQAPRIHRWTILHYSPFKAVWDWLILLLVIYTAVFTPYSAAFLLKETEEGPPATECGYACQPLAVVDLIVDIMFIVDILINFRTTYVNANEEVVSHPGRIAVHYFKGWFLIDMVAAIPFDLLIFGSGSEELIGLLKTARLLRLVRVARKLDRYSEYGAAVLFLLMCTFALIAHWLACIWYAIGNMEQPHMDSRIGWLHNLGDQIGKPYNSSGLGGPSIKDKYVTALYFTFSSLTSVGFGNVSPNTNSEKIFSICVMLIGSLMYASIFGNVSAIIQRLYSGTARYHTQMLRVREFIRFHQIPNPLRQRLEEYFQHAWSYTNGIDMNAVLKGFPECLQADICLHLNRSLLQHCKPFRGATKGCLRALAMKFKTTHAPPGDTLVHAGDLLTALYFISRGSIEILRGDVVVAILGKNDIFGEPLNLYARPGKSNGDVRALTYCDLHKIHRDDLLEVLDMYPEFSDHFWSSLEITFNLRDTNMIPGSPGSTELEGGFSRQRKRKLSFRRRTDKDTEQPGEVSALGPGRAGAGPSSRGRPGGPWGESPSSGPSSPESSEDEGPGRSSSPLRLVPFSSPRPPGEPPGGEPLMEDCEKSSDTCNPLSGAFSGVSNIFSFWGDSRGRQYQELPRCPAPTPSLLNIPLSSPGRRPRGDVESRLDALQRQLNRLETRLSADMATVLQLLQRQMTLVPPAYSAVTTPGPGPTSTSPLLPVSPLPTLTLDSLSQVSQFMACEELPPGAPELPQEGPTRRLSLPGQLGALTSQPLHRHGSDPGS

| SMILES | hERG current change (%, negative = inhibition) at 1uM [%] |
| --- | --- |
| COc1cccc(NC(=O)C2C3CC4OC(=O)C2C4C3)c1 (stereo not shown) | 13.8 |
| Cc1ccc(NC(=O)CCNS(=O)(=O)c2ccc3[nH]c(=O)oc3c2)c(Cl)c1 | 8.46 |
| CC1(C)CC(=O)c2c(O)cc(OCc3ccc(Br)cc3)cc2O1 | 10.5 |
| COc1ccc(N2CC(O)=C(c3nc4ccccc4s3)C2=N)cc1 | 6.79 |
| COc1ccc(Cl)cc1C(=O)Nc1ccccc1N1CCN(C)CC1 | -70.4 |
| CC(NC(=O)c1cccc(N(C)C)c1)c1ccc(-n2ccnc2)cc1 (stereo not shown) | -37.9 |
| COc1ccc(/C=C(\C)c2nc(C)c(-c3ccccc3)c(=O)[nH]2)cc1 | 6.64 |
| COC(=O)c1ccccc1NC(=O)CSc1nnc(-c2ccoc2C)n1C | -1.98 |
| C=CCNC(=O)c1c(CS(=O)(=O)c2ccccc2)noc1C(=O)NCc1ccccc1 | -4.26 |
| O=C(CSc1nc(=O)n2ccccc2n1)Nc1ccc2c(c1)OCO2 | 7.63 |
| CCOc1ccc(NS(=O)(=O)c2ccc(OC)c(NC(=O)c3ccc4c(c3)OCCO4)c2)cc1 | 7.12 |
| CCCC12CN3CCN(CC(C3)/C1=N\NC(=O)Nc1ccccc1)C2 | 11.7 |
| O=S(=O)(/C=C/c1ccccc1)NC1CCCCCCC1 | 0.355 |
| Cc1nonc1-c1csc(N)n1 | 6.55 |
| CN1CCN(c2ccc(NC(=O)c3sc4ccccc4c3Cl)cc2)CC1 | 7.55 |
| O=C(CSc1nc2ccccc2c(=O)n1-c1ccccc1)NCc1ccco1 | 5.54 |
| COc1ccc(NC(=O)c2cccc(Cn3cc(Br)cn3)c2)cn1 | 6.09 |
| Nc1ncnc2nc(SCc3ccc(Cl)cc3Cl)[nH]c12 | 14 |
| COc1ccc(-n2nc(C(=O)NCC(=O)NCC3CCCO3)c3ccccc3c2=O)cc1Cl (stereo not shown) | 9.44 |
| O=C(COC(=O)c1ccccn1)NCc1ccccc1Cl | 2.21 |
| Cc1ccc(NC(=O)CN2C(=O)NC3(CCCCCCC3)C2=O)cc1C | 10.9 |
| CC(C)(C)c1ccc(Cc2n[nH]c(=S)[nH]c2=O)cc1 | 13.1 |
| Cc1nc(C)c(-c2ccc(SCC(=O)Nc3ccccc3)nn2)s1 | 12.4 |

| SMILES | hERG current change (%, negative = inhibition) at 1uM [%] |
| --- | --- |
| CCC1Oc2ccc(C)cc2N(CC(=O)N2CCCC2)C1=O (stereo not shown) | 0.676 |
| COc1cc(NC(=O)COC(=O)c2cnc(C)cn2)c(C)cc1[N+](=O)[O-] | 12.2 |
| CCC1CCCCN1CCCNC(=O)Cn1nc(-c2ccccc2)ccc1=O (stereo not shown) | 3.42 |
| COc1ccc(OC)c(CCNC(=O)CS(=O)(=O)Cc2nc(-c3ccccc3Cl)oc2C)c1 | 21.9 |
| CSCCC(NC(=O)C1CCC(C)CC1)C(=O)O (stereo not shown) | 14.6 |
| COc1ccc(NS(=O)(=O)c2ccc(NC(C)=O)cc2)cc1OC | 0.751 |
| COC(=O)c1ccc(C2NC(C(=O)O)CS2)cc1 (stereo not shown) | 15.7 |
| Cc1cc(S(=O)(=O)NCC(C)C)ccc1OCC(=O)N1CCOCC1 | 4.74 |
| COc1ccc(N2C(=O)CC(Sc3nc(C)cc(C)c3C#N)C2=O)cc1 (stereo not shown) | 13.4 |
| COc1ccc(OCCOC(=O)c2ccc(F)c(S(=O)(=O)N3CCOCC3)c2)cc1 | 12.2 |
| COc1ccc(C(=O)NC(=S)Nc2nc(C)cc(C)n2)cc1Br | 14.4 |
| CC(Sc1ccccc1)C(=O)N(CCC#N)Cc1cccnc1 (stereo not shown) | 11.6 |
| Cc1noc(C)c1CSc1nc2ccccc2n1C | 15 |
| COc1ccc(C)cc1NS(=O)(=O)c1ccc2c(c1)N(C(C)=O)CCO2 | 5.82 |
| COC(=O)c1ccc(NC(=O)C(=O)NCC2CCCO2)cc1 (stereo not shown) | 9.42 |
| CC1CCC(NC(=O)C2CCC(CNS(=O)(=O)c3cccc4cccnc34)CC2)CC1 (stereo not shown) | 19.1 |
| COc1ccccc1CNS(=O)(=O)N(C)C | 10.6 |
| Cn1c(NCCO)nc2c1c(=O)n(Cc1cccc(Cl)c1)c(=O)n2C | 13.4 |
| Cn1c(=O)c2c(ncn2CCN(CCO)Cc2ccccc2)n(C)c1=O | -0.88 |
| CC(C)OC(=O)C1C(=O)CC(C)(O)C(C(=O)OC(C)C)C1c1ccccc1 (stereo not shown) | 11.7 |
| COc1ccc(Cl)cc1NC(=O)Nc1ccc(Br)cn1 | 13.5 |
| Cc1ccccc1C(=O)NC(CC(C)C)C(=O)OCc1cc(=O)n2cc(Br)ccc2n1 (stereo not shown) | -4.24 |
| NP(=O)(OCCCc1ccccc1)Oc1ccc(Cl)cc1 (stereo not shown) | 6.56 |

| SMILES | hERG current change (%, negative = inhibition) at 1uM [%] |
| --- | --- |
| CCN(CC)S(=O)(=O)c1ccc(Oc2ccccc2)c(N)c1 | 3.88 |
| O=C(Oc1ccc2c(=O)c(Oc3ccc4ccccc4c3)coc2c1)c1cccnc1 | 3.72 |
| CC(NS(=O)(=O)c1ccc(F)cc1)C(c1cccs1)N1CCN(C)CC1 (stereo not shown) | 8.12 |
| CCn1c(COc2ccccc2)nnc1SCc1ccc(C#N)cc1 | -17.1 |
| Cc1nc2ccc(S(=O)(=O)N(C)CC(=O)N3CCc4ccccc43)cc2s1 | 6.74 |
| COc1ccc(NC(=O)c2cc(-c3ccccc3)oc2C)cc1 | 9.2 |
| CCOc1ccc2nc(NC(=O)C3(C)CC3(Br)Br)sc2c1 (stereo not shown) | 9.16 |
| O=C(CC1S/C(=N/N=C/c2cccnc2)NC1=O)Nc1ccccc1 (stereo not shown) | 9.29 |
| Cn1c(NCC(O)c2ccccc2)nc2c1c(=O)n(Cc1ccc(Cl)cc1)c(=O)n2C (stereo not shown) | 3.2 |
| COc1cc(-c2nc(S(=O)(=O)c3ccc(C)cc3)c(N(C)C)o2)cc(OC)c1OC | 1.16 |
| CC1CCCCN1CCCNC(=O)CCCN1C(=O)c2cccnc2Sc2ccccc21 (stereo not shown) | 13.2 |
| COc1cc2c(cc1OC)C(c1ccccc1)N(C(=O)c1ccccc1F)CC2 (stereo not shown) | -8.07 |
| CN1CCN(C(=O)c2c(O)c3cccc4c3n(c2=O)CCC4)CC1.Cl | 9.69 |
| O=C(O)CCn1c(O)c(C=C2N=c3ccccc3=N2)sc1=S | 8.95 |
| CC1Sc2ccc(S(=O)(=O)N3CCC(C(=O)NCCc4ccccc4)CC3)cc2NC1=O (stereo not shown) | 9.83 |
| CCCCCCOc1ccc(N2C(=O)CC(NCc3ccc(S(N)(=O)=O)cc3)C2=O)cc1 (stereo not shown) | 15.8 |
| CCn1c(-c2ccc[nH]c2=O)nc2ccccc21 | 6.24 |
| C/C=C(\C)CN1CCC(n2nccc2NC(=O)CCCc2ccccc2)CC1 | -13.4 |
| Cc1c(C(=O)N2CCN(c3ccccn3)CC2)oc2ccccc12 | -3.84 |
| CCC(C(=O)NC(CC(=O)O)c1ccc(Cl)cc1)c1ccccc1 (stereo not shown) | 18.9 |
| CCOC(=O)N1CCN(c2ncnc3nc[nH]c23)CC1 | 12.4 |
| COc1ccccc1C(CNC(=S)NCc1ccccc1)N1CCCC1 (stereo not shown) | 9.49 |
| CCOC(=O)c1cnc2c(Cl)c(Cl)ccc2c1N1CCN(C)CC1.Cl | -1.79 |

| SMILES | hERG current change (%, negative = inhibition) at 1uM [%] |
| --- | --- |
| Cc1ccc(S(=O)(=O)N2CCOCC2)cc1NC(=O)Cn1nc(C)c([N+](=O)[O-])c1C | 17.4 |
| COc1ccc(NC(=O)c2ccc3nc(C)sc3c2)cc1 | 12.3 |
| CC(C)CN1C(=O)c2ccc(NC(=O)Cc3ccccc3)cc2C1=O | 11.4 |
| O=S(N1CCCCC1)C12CC3CC(CC(C3)C1)C2 (stereo not shown) | 8.76 |
| O=[N+]([O-])c1cc(C(F)(F)F)ccc1NCC1CCCO1 (stereo not shown) | 4.11 |
| COCCn1c(-c2ccc(-c3ccccc3Cl)o2)nc2c1c(=O)[nH]c(=O)n2CC(C)C | 20.2 |
| COc1ccc(OC)c(CCNC(=O)c2ccc3c(c2)N(Cc2ccc(F)cc2)CCS3)c1 | 17.9 |
| C=CCn1c(SCC(N)=O)nnc1-c1cnccn1 | 10.8 |
| c1ccc(CNc2c3ccccc3nc3ccccc23)cc1 | -74.5 |
| CCN(CC)C(=O)CSc1n[nH]c(=S)n1N | 12.5 |
| Cc1[nH]n(-c2ccc([N+](=O)[O-])cc2)c(=O)c1C=NCCc1c[nH]c2ccccc12 | 11.9 |
| CCN(CC)CCCN=Cc1c(O)n(CCc2ccc(OC)c(OC)c2)c(=O)[nH]c1=O | 0.515 |
| Cc1noc(C)c1S(=O)(=O)N(CC(=O)O)c1ccc2c(c1)OCO2 | 0.552 |
| CC1CCCC/C1=N\NC(=S)NCCc1ccccc1 (stereo not shown) | 14.7 |
| COC(=O)c1sccc1NC(=O)Cc1ccc(Br)cc1 | 12.7 |
| Cc1cc(C(=O)NCc2cccs2)cs1 | 13 |
| CN(C)C(=O)c1ccccc1-c1ccccc1 | 12.8 |
| O=C(NCCOc1ccccc1)C1CCC(=O)N(C2CCCCCC2)C1 (stereo not shown) | 11.5 |
| Cc1nn(Cc2ccccc2Cl)c(C)c1C(=O)NC1CCCc2ccccc21 (stereo not shown) | 6.95 |
| CCC1CCC(C(=O)NNC(=O)c2cc(-c3ccco3)[nH]n2)CC1 (stereo not shown) | 4.43 |
| O=C(NCC1COCCO1)C1CCN(S(=O)(=O)c2ccccc2)CC1 (stereo not shown) | 5.66 |
| CCC(=O)NCCc1nc2cc(NC(=O)c3ccc(Cl)cc3)ccc2n1C | 14.6 |
